Test results as given in the supplement of paper PMC8728848.
The other results are listed elsewhere or left out.

Legend:
Assay in all cases: glycan array binding signal (z-score within array); higher = stronger binding
Details in all cases: glycan notation: IUPAC condensed, linker removed
[1] = molecular target: Gal(b1-4)GlcNAc(b1-2)Man(a1-6)[Man(a1-3)]Man(b1-4)GlcNAc(b1-4)GlcNAc
Procedure, shortened: (§1)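 The binding signal is a Z-score computed within each array and averaged over linkers. Arrays of the same protein sequence at different concentrations or buffers were also averaged together. Data originate from 3228 arrays in the Consortium for Functional Glycomics database, kept only where the protein sequence was available.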

[2] = molecular target: Gal(b1-4)GlcNAc(b1-2)[Gal(b1-4)GlcNAc(b1-4)]Man(a1-3)[Gal(b1-4)GlcNAc(b1-2)Man(a1-6)]Man(b1-4)GlcNAc(b1-4)GlcNAc
Procedure, shortened: as §1

[3] = molecular target: Gal(b1-4)GlcNAc(b1-2)[Gal(b1-4)GlcNAc(b1-4)]Man(a1-3)[Gal(b1-4)GlcNAc(b1-2)[Gal(b1-4)GlcNAc(b1-6)]Man(a1-6)]Man(b1-4)GlcNAc(b1-4)GlcNAc
Procedure, shortened: as §1

[4] = molecular target: Gal(b1-4)GlcNAc(b1-2)[Gal(b1-4)GlcNAc(b1-4)]Man(a1-3)[GlcNAc(b1-4)][Gal(b1-4)GlcNAc(b1-2)Man(a1-6)]Man(b1-4)GlcNAc(b1-4)GlcNAc
Procedure, shortened: as §1

[5] = molecular target: Gal(b1-4)GlcNAc(b1-2)[Gal(b1-4)GlcNAc(b1-4)]Man(a1-3)[GlcNAc(b1-4)][Gal(b1-4)GlcNAc(b1-2)[Gal(b1-4)GlcNAc(b1-6)]Man(a1-6)]Man(b1-4)GlcNAc(b1-4)GlcNAc
Procedure, shortened: as §1

[6] = molecular target: Gal(b1-4)GlcNAc(b1-2)[Gal(b1-4)GlcNAc(b1-6)]Man(a1-6)[Gal(b1-4)GlcNAc(b1-2)Man(a1-3)]Man(b1-4)GlcNAc(b1-4)GlcNAc
Procedure, shortened: as §1

[7] = molecular target: Gal(b1-4)GlcNAc(b1-2)[Gal(b1-4)GlcNAc(b1-6)]Man(a1-6)[Gal(b1-4)GlcNAc(b1-2)Man(a1-3)]Man(b1-4)GlcNAc(b1-4)[Fuc(a1-6)]GlcNAc
Procedure, shortened: as §1

[8] = molecular target: Gal(b1-4)GlcNAc(b1-2)[Gal(b1-4)GlcNAc(b1-6)]Man(a1-6)[GlcNAc(b1-4)][Gal(b1-4)GlcNAc(b1-2)Man(a1-3)]Man(b1-4)GlcNAc(b1-4)GlcNAc
Procedure, shortened: as §1

[9] = molecular target: Gal(b1-4)GlcNAc(b1-2)[Gal(b1-4)GlcNAc(b1-6)]Man(a1-6)[GlcNAc(b1-4)][Gal(b1-4)GlcNAc(b1-2)[Gal(b1-4)GlcNAc(b1-4)]Man(a1-3)]Man(b1-4)GlcNAc(b1-4)[Fuc(a1-6)]GlcNAc
Procedure, shortened: as §1

[10] = molecular target: Gal(b1-4)GlcNAc(b1-3)Gal(b1-3)GalNAc
Procedure, shortened: as §1

[11] = molecular target: Gal(b1-4)GlcNAc(b1-3)Gal(b1-3)GlcNAc
Procedure, shortened: as §1

[12] = molecular target: Gal(b1-4)GlcNAc(b1-3)Gal(b1-4)Glc
Procedure, shortened: as §1

[13] = molecular target: Gal(b1-4)GlcNAc(b1-3)Gal(b1-4)GlcNAc
Procedure, shortened: as §1

[14] = molecular target: Gal(b1-4)GlcNAc(b1-3)Gal(b1-4)GlcNAc(b1-2)Man(a1-3)[Gal(b1-4)GlcNAc(b1-3)Gal(b1-4)GlcNAc(b1-2)Man(a1-6)]Man(b1-4)GlcNAc(b1-4)GlcNAc
Procedure, shortened: as §1

[15] = molecular target: Gal(b1-4)GlcNAc(b1-3)Gal(b1-4)GlcNAc(b1-2)Man(a1-3)[Gal(b1-4)GlcNAc(b1-3)Gal(b1-4)GlcNAc(b1-2)Man(a1-6)]Man(b1-4)GlcNAc(b1-4)[Fuc(a1-6)]GlcNAc
Procedure, shortened: as §1

[16] = molecular target: Gal(b1-4)GlcNAc(b1-3)Gal(b1-4)GlcNAc(b1-2)[Gal(b1-4)GlcNAc(b1-3)Gal(b1-4)GlcNAc(b1-6)]Man(a1-6)[Gal(b1-4)GlcNAc(b1-3)Gal(b1-4)GlcNAc(b1-2)Man(a1-3)]Man(b1-4)GlcNAc(b1-4)GlcNAc
Procedure, shortened: as §1

[17] = molecular target: Gal(b1-4)GlcNAc(b1-3)Gal(b1-4)GlcNAc(b1-2)[Gal(b1-4)GlcNAc(b1-3)Gal(b1-4)GlcNAc(b1-6)]Man(a1-6)[Gal(b1-4)GlcNAc(b1-3)Gal(b1-4)GlcNAc(b1-2)Man(a1-3)]Man(b1-4)GlcNAc(b1-4)[Fuc(a1-6)]GlcNAc
Procedure, shortened: as §1

[18] = molecular target: Gal(b1-4)GlcNAc(b1-3)Gal(b1-4)GlcNAc(b1-3)Gal(b1-4)GlcNAc
Procedure, shortened: as §1

[19] = molecular target: Gal(b1-4)GlcNAc(b1-3)Gal(b1-4)GlcNAc(b1-3)Gal(b1-4)GlcNAc(b1-2)Man(a1-3)[Gal(b1-4)GlcNAc(b1-3)Gal(b1-4)GlcNAc(b1-3)Gal(b1-4)GlcNAc(b1-2)Man(a1-6)]Man(b1-4)GlcNAc(b1-4)GlcNAc
Procedure, shortened: as §1

[20] = molecular target: Gal(b1-4)GlcNAc(b1-3)Gal(b1-4)GlcNAc(b1-3)Gal(b1-4)GlcNAc(b1-2)Man(a1-3)[Gal(b1-4)GlcNAc(b1-3)Gal(b1-4)GlcNAc(b1-3)Gal(b1-4)GlcNAc(b1-2)Man(a1-6)]Man(b1-4)GlcNAc(b1-4)[Fuc(a1-6)]GlcNAc
Procedure, shortened: as §1

[21] = molecular target: Gal(b1-4)GlcNAc(b1-3)Gal(b1-4)GlcNAc(b1-3)Gal(b1-4)GlcNAc(b1-2)[Gal(b1-4)GlcNAc(b1-3)Gal(b1-4)GlcNAc(b1-3)Gal(b1-4)GlcNAc(b1-6)]Man(a1-6)[Gal(b1-4)GlcNAc(b1-3)Gal(b1-4)GlcNAc(b1-3)Gal(b1-4)GlcNAc(b1-2)Man(a1-3)]Man(b1-4)GlcNAc(b1-4)[Fuc(a1-6)]GlcNAc
Procedure, shortened: as §1

[22] = molecular target: Gal(b1-4)GlcNAc(b1-3)Gal(b1-4)GlcNAc(b1-3)Gal(b1-4)GlcNAc(b1-3)Gal(b1-4)GlcNAc(b1-2)Man(a1-3)[Gal(b1-4)GlcNAc(b1-3)Gal(b1-4)GlcNAc(b1-3)Gal(b1-4)GlcNAc(b1-3)Gal(b1-4)GlcNAc(b1-2)Man(a1-6)]Man(b1-4)GlcNAc(b1-4)GlcNAc
Procedure, shortened: as §1

B1: LecRKVI.2 (protein)
chain: RTTTNFAFRGFNGNQSKIRIEGAAMIKPDGLLRLTDRKSNVTGTAFYHKPVRLLNRNSTNVTIRSFSTSFVFVIIPSSSSNKGFGFTFTLSPTPYRLNAGSAQYLGVFNKENNGDPRNHVFAVEFDTVQGSRDDNTDRIGNDIGLNYNSRTSDLQEPVVYYNNDDHNKKEDFQLESGNPIQALLEYDGATQMLNVTVYPARLGFKPTKPLISQHVPKLLEIVQEEMYVGFTASTGKGQSSAHYVMGWSFSSGGERPIADVLILSELPPPPPNKAKKEGLNS
- glycan array binding signal (z-score) [1]: 1.15
- glycan array binding signal (z-score) [2]: 0.091
- glycan array binding signal (z-score) [3]: 0.071
- glycan array binding signal (z-score) [4]: -0.319
- glycan array binding signal (z-score) [5]: -0.371
- glycan array binding signal (z-score) [6]: 0.451
- glycan array binding signal (z-score) [7]: 0.865
- glycan array binding signal (z-score) [8]: 0.506
- glycan array binding signal (z-score) [9]: -0.077
- glycan array binding signal (z-score) [10]: -0.047
- glycan array binding signal (z-score) [11]: -0.326
- glycan array binding signal (z-score) [12]: -0.296
- glycan array binding signal (z-score) [13]: -0.308
- glycan array binding signal (z-score) [14]: 1.09
- glycan array binding signal (z-score) [15]: 3.44
- glycan array binding signal (z-score) [16]: 1.75
- glycan array binding signal (z-score) [17]: 1.54
- glycan array binding signal (z-score) [18]: -0.203
- glycan array binding signal (z-score) [19]: 6.91
- glycan array binding signal (z-score) [20]: 1.62
- glycan array binding signal (z-score) [21]: 1.51
- glycan array binding signal (z-score) [22]: 0.16
